In all, about 33,000 sequences were measured (“E-score (-0.5 to 0.5)”: median about -0.035, highest 2% from about 0.35 on). Some of the results follow.

The target in the assay is T1, Pdr3 (UniProt P33200).
T1 sequence: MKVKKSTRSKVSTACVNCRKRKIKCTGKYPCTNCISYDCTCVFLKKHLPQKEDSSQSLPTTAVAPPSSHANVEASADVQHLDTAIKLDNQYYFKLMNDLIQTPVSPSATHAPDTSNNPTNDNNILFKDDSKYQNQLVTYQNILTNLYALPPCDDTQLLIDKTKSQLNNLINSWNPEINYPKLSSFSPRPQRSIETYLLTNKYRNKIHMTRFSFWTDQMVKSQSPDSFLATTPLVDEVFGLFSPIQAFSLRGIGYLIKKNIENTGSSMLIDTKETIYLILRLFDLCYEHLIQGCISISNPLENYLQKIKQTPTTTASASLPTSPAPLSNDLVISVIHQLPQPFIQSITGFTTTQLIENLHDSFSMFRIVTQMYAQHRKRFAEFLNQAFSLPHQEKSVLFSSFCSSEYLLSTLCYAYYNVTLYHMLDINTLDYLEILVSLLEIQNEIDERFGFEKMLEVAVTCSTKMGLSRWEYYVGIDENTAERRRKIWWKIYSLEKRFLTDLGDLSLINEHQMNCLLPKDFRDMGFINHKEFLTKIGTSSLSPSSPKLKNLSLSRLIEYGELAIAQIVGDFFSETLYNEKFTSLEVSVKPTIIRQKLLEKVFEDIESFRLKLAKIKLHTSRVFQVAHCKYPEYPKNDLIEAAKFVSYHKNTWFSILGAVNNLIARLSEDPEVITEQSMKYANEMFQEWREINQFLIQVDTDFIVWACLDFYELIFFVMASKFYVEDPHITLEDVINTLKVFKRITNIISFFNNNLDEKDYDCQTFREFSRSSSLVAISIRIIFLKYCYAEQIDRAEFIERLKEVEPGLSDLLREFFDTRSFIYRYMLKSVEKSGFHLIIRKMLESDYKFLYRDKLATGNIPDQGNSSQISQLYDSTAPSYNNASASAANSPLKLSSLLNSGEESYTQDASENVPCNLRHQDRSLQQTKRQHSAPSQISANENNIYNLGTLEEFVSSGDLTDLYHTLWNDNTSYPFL
Briefly: PBM E-score (8-mer binding enrichment) (E-score (-0.5 to 0.5)); higher = stronger / more preferred TF binding; most listed sequences are background and not binding sites. The following applies: protein concentration: 200 nM; construct: GST-full length. How it is done: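 Universal 'all 10-mer' protein binding microarrays (Agilent AMADID 015681) probed with GST-tagged S. cerevisiae TFs (full-length or DBD) made by in vitro transcription/translation (PURExpress), about 100-200 nM. Bound TF was detected with fluorescent anti-GST. Each ungapped 8-mer (which stands for itself and its reverse complement) is scored by the PBM enrichment score (E-score), a modified Wilcoxon-Mann-Whitney statistic from -0.5 to +0.5, computed with the Universal PBM Analysis Suite. Scale: above 0.35 generally sequence-specific binding.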
For AGCACTTC, the “PBM E-score” value is -0.127.
Take AAGTGGGG: the “PBM E-score” value was -0.0866.
As for CATTAGTA, the “PBM E-score” value was -0.0101.
The figure for GAATGACC is 0.198; for ACGCCTAC it is -0.151.
Consider AATAGTTA, for which the “PBM E-score” value is -0.147.
To CCTTCCGC belongs 0.38.
The figure for CCTCCAAG is -0.263; for ACCGTTAT it is -0.0372.
On to ACTCATCA, for which the “PBM E-score” value was -0.0044.
As for AATCGATA, the “PBM E-score” value is 0.0316.
As for AGGCACCA, the “PBM E-score” value was -0.0957.
The figure for AGAGCCCG is 0.152; for ATTAACAA it is 0.0511.
With GAACACCA, the “PBM E-score” value was determined as 0.101.
Turning to TTCATCAA, the “PBM E-score” value worked out at 0.0631.
The figure for TATTCTAA is 0.0298.
The figure for TAGCATGA is -0.224.
To CGATCGAC belongs 0.0431; to ATTCAATA, -0.03; to ACAGGAAT, -0.141.
In the case of GCGGCTAA, the “PBM E-score” value worked out at 0.029.
The figure for GACCAGGA is 0.0237.
With TGGGTGAA, the “PBM E-score” value was 0.192.
The figure for CGAATATC is 0.053; for CACCTGAG it is -0.0607; for AGGATAAG it is 0.0327.
Turning to AGGTAAGA, the “PBM E-score” value is -0.124.
For CTAGCGAG, the “PBM E-score” value was -0.184.
On to ATCAACAT, for which the “PBM E-score” value is -0.118.
In the case of CCAGTCCC, the “PBM E-score” value turned out to be 0.0882.
As to TGCCTCCA, the “PBM E-score” value was -0.29.
The figure for CAGCGTGC is -0.0314.
In the case of ATTTTCAC, the “PBM E-score” value was 0.15.
In the case of AACCAATG, the “PBM E-score” value was -0.102.
To GCGTATGA belongs -0.194.
The figure for AATTATAG is -0.0568; for AAGCCAAC it is -0.154.
To ATCAGTAC belongs -0.0959; to ACGGGCAA, 0.0751; to CAGACCCG, 0.279.
In the case of CTACTATC, the “PBM E-score” value turned out to be 0.111.
To CAATTCAG belongs -0.0302.
GTCTAAAC: the “PBM E-score” value is -0.00121.
The figure for TTCGTCAA is -0.0927; for AAGAACGT it is 0.00511.
As to CCCCATGC, the “PBM E-score” value is -0.0965.
To AAGTAGTC belongs -0.112; to CAAGGCCG, 0.069; to TCAGAGGA, -0.12.
To CGCTGCAG belongs -0.11; to AGCCACTC, -0.192.
As to GGCATAGA, the “PBM E-score” value is 0.138.
On to GATGTTAC, for which the “PBM E-score” value is -0.0497.
The figure for CGAAAAAA is 0.0296.
The figure for ATCCCAGC is -0.0941; for CTTACCTC it is -0.273.
The figure for ACGCTGCG is -0.124; for GCAGACTA it is -0.292; for CATGTTCG it is -0.0546.
On to GGGATGGA, for which the “PBM E-score” value came out at 0.276.
For the sequence TAACGTGA, the “PBM E-score” value was -0.26.
Consider CCGAAAGC, for which the “PBM E-score” value worked out at 0.136.
To CGTCCCTC belongs 0.00647; to CCGTTTCC, 0.332; to AAGTGGCT, -0.0579.
To CACACTGC belongs 0.00501; to CAGTTCCA, -0.0348; to AGTCCTAT, -0.165.
The figure for CCTCAACA is -0.102; for CGCTCAAG it is -0.104.
In the case of TCCCAACA, the “PBM E-score” value is -0.0502.
To CGAAGCAA belongs -0.219; to ACCCAGTC, -0.0225; to AAGGTGAA, 0.0207.
To AGTCAAGA belongs -0.163; to ATTTGCTA, -0.119; to AAAATTTT, -0.0346.
AACCGTAG: the “PBM E-score” value is -0.193.
To GTAGAAAC belongs -0.0556.
Turning to CGAACCAA, the “PBM E-score” value was -0.025.
To AAAGTTCG belongs 0.0873.
As for GGACTTAA, the “PBM E-score” value is 0.00285.
AAAATCAC: the “PBM E-score” value was -0.00967.
To CCCGCGAG belongs 0.227; to AAATTTTA, -0.215.
Take GCGCCACA: the “PBM E-score” value is -0.0755.
The figure for AGACGCCC is 0.0946; for CCAAAATC it is 0.0917; for AACGTGAT it is -0.0792.
To CCGATTGA belongs 0.126; to CCATGGCG, 0.195.
To CTTAAAGC belongs -0.25.
With CCACTGGA, the “PBM E-score” value was -0.0718.
To ATCCTGAG belongs -0.145; to ATGTGCCA, -0.147; to CCTATCCC, 0.188.
To AATTACAG belongs -0.0141; to AGCAGTAT, -0.0252; to GGGGAGAC, -0.0673.
AACGTATT: the “PBM E-score” value amounted to 0.00584.
In the case of CAGCTAAA, the “PBM E-score” value is -0.177.
CAACATGA: the “PBM E-score” value was -0.0168.
As for GCCTTTCC, the “PBM E-score” value was 0.21.
To GCATATCA belongs 0.188.
For GCGTTAAA, the “PBM E-score” value was -0.0868.
The figure for AAACCAAT is 0.0911; for GGAAACCC it is 0.292.
Take AACTCAGA: the “PBM E-score” value was -0.108.

(Values after the supplement of paper PMC3334620.)
